In PubChem BioAssay AID588501 (NMMLSC, 2011):
The campaign covered roughly 360,000 compounds. About 420 (0.12%) were called active. Inconclusive results, whose numbers are uncertain, are shown with a selection of clear calls. Rule as the data show it: active = inhibition above about 30%; inconclusive = no clear call, values can overlap the other calls; inactive = below that.

Each compound was assayed against Lethal factor (Bacillus anthracis) (UniProt P15917) (assay: anthrax lethal factor cleavage blockers – biochemical, multiplex microsphere, MLPCN library, primary screen (AID 588501; also: plate controls were buffer without enzyme for full effect and enzyme alone for no effect)). Conditions: multiplex microsphere protease cleavage assay, LF; at 10 µM; hits give high values.
With `CC(=O)Oc1ccccc1Cn1c(C)c(C(=O)NCc2ccc(Cl)c(Cl)c2)sc1=O` the inhibition was inactive: -5.6%.
With `O=C(Nc1cccc(S(=O)(=O)NC2=NCCC2)c1)c1cc(=O)[nH]c2ccccc12` the inhibition was inconclusive: -0.2%.
`CCOC(=O)N1CCN(C2=C(NS(=O)(=O)c3ccc(Br)cc3)C(=O)c3ccccc3C2=O)CC1` was tested, and the inhibition was inactive: -7.1%.
`COc1ccc(-c2ccc(C(=O)NCc3ccc(N(C)C)cc3)c3occc23)c(C)c1` was tested, and the inhibition was inactive: 1.3%.
With `CC1=NCC(C)c2ccccc21` (stereo not given) the inhibition was inconclusive: -2.1%.
For `C=CCNc1nc(C(=O)OCC(=O)c2ccc(C)c([N+](=O)[O-])c2)cs1`, the inhibition was inconclusive: -1.3%.
`Cc1c(-c2ccccc2)cn2c1-c1ccc(C)n1CC2` was tested, and the inhibition was inconclusive: -7.2%.
In the case of `CCN(CC(=O)Nc1cc(S(=O)(=O)N2CCOCC2)ccc1C)Cc1ccccc1`, the inhibition is reported as inconclusive: -2.9%.
`O=C(O)CCC(=O)Nc1ccc(Oc2ncnc3cc(Cl)ccc23)nc1` was tested, and the inhibition was inconclusive: -6.6%.
In the case of `COc1ccccc1CC1(C)NC(=O)N(CC(=O)N2CCc3ccccc3C2)C1=O` (stereo not given), the inhibition is reported as inconclusive: 0.2%.
In the case of `CC(C)c1cc(C(=O)O)on1`, the inhibition is reported as inconclusive: -31.6%.
`Cc1nc(N2CCN(Cc3ccc4c(c3)OCO4)CC2)nc2c1C(=O)CC(c1ccco1)C2` (stereo not given) was tested, and the inhibition was inconclusive: -26%.
`CC(Sc1nnc(C2CC2)n1C1CC1)C(=O)c1ccc(Br)cc1` (stereo not given) was tested, and the inhibition was inconclusive: -2.4%.
For `CCN1CCN(c2ccc(S(=O)(=O)N3CCCCC3)cc2NC(=O)c2cccc(C)c2[N+](=O)[O-])CC1`, the inhibition was inconclusive: -3.1%.
In the case of `CCNC(=S)N/N=C/c1sc(N2CCCCC2)nc1-c1cccs1`, the inhibition is reported as inconclusive: 4.2%.
In the case of `CC(OC(=O)c1cccc(-n2cnnn2)c1)C(=O)N(C)c1ccccc1` (stereo not given), the inhibition is reported as inconclusive: 4.5%.
In the case of `Cc1ccc(NC(=O)c2ccc(Cl)c(S(=O)(=O)N3CCc4ccccc43)c2)nc1`, the inhibition is reported as inconclusive: 0.5%.
With `O=C(NCCN1CCOCC1)N1CCOCC1` the inhibition was inconclusive: 7.4%.
With `O=C(Nc1cccc(F)c1)[C@@H]1CCCN1` the inhibition was active: 41.3%.
In the case of `Cc1ccc(C2/C(=C(\O)c3c(C)nc4c(C)cccn34)C(=O)C(=O)N2CCN(C)C)o1` (stereo not given), the inhibition is reported as inconclusive: 3.8%.
`CCCCn1c(N)c(N(CCOC)C(=O)C2CCN(S(=O)(=O)c3ccc(C)cc3)CC2)c(=O)[nH]c1=O` was tested, and the inhibition was inconclusive: -3.7%.
For `O=C(N/C(=C/c1ccc(F)cc1)C(=O)N1CCOCC1)c1ccccc1`, the inhibition was inconclusive: -37.7%.
`COC(=O)c1cn(-c2ccccc2)nc1C(=O)OC` was tested, and the inhibition was inconclusive: 9.2%.
For `CCN(CC(=O)Nc1ccccc1C(F)(F)F)C(=O)c1cc(-c2ccccc2)nn1-c1ccccc1`, the inhibition was inconclusive: 2.6%.
`Brc1ccc2ncnc(NCc3cccnc3)c2c1` was tested, and the inhibition was active: 42.4%.
With `CCN(CC)c1ccc(/C=c2\sc3nnc(-c4ccccc4Cl)n3c2=O)cc1` the inhibition was active: 80.5%.
With `O=C(COC(=O)c1cncc(Br)c1)NC12CC3CC(CC(C3)C1)C2` the inhibition was active: 57.5%.
With `Cc1ccc(N2C(=O)CC3(CCCC3)CC2=O)cc1` the inhibition was active: 31.9%.
With `COc1ccccc1NC(=O)C(C)OC(=O)CCCc1c[nH]c2ccccc12` (stereo not given) the inhibition was inconclusive: 1.3%.
In the case of `Cc1ccc(C(=O)C(C)OC(=O)Cc2n[nH]c(=O)c3ccccc23)cc1C` (stereo not given), the inhibition is reported as inconclusive: -0.1%.
`Cc1cc(NS(=O)(=O)c2ccc(NC(=O)C(C)Oc3ccccc3Cl)cc2)no1` (stereo not given) was tested, and the inhibition was inconclusive: -3.5%.
For `O=C(c1cc(COc2c(F)cccc2F)on1)N1CC[C@@H]2CCCC[C@H]2C1`, the inhibition was inactive: 0.2%.
In the case of `Cc1ccc(-n2c(SCC(N)=O)nnc2-c2cnccn2)cc1`, the inhibition is reported as active: 36.1%.
For `Cn1c2ccccc2c(=O)c2c(=O)n(-c3ccccc3)c(-c3ccc(C(C)(C)C)cc3)nc21`, the inhibition was active: 36.2%.
With `O=C(COC(=O)c1cn(-c2ccccc2)nc1-c1ccccc1)c1cccc([N+](=O)[O-])c1` the inhibition was inactive: -4.7%.
With `CCN(CC)CC(O)c1ccc2ccc3ccc(O)cc3c2c1` (stereo not given) the inhibition was inactive: -2.8%.
With `Cc1cccc(C(C)C)c1NC(=O)C1CN(S(=O)(=O)c2ccccc2)CCN1S(=O)(=O)c1ccccc1` (stereo not given) the inhibition was active: 37.3%.
For `O=C(NCCc1ccc(F)cc1)C(=O)NCC1CCCN1S(=O)(=O)c1cccs1` (stereo not given), the inhibition was inactive: -0.3%.
`COc1ccccc1C(=O)NC(=O)COC(=O)c1nc(Cl)ccc1Cl` was tested, and the inhibition was inconclusive: -8.6%.
For `c1ccc(-n2ncc3c(N4CCCC4)ncnc32)cc1`, the inhibition was inconclusive: -8.1%.
For `Cc1cc2cc(CNC(=O)CC(C)C)ccc2n1C`, the inhibition was active: 33.8%.
For `CCSc1nnc(-c2sc3nnc(-c4ccccc4)c(-c4ccccc4)c3c2N)o1`, the inhibition was active: 56.3%.
`COc1ccc(N(CC(=O)Nc2cc(C)on2)S(=O)(=O)c2cc(C)ccc2C)cc1` was tested, and the inhibition was inconclusive: -26.6%.
With `CCc1nc(OCCN(C)C)c2oc3ccccc3c2n1` the inhibition was inconclusive: -11.4%.
`CC(=O)c1ccc(OCC(=O)N2CCN(S(=O)(=O)c3ccc(Br)s3)CC2)cc1` was tested, and the inhibition was inconclusive: -1.8%.
For `CCOC(=O)Nc1ccc(S(=O)(=O)Nc2nccc(C)n2)cc1`, the inhibition was inconclusive: 14%.
With `N=C1SC(CC(=O)Nc2ccc([N+](=O)[O-])cc2)C(=O)N1c1ccccc1` (stereo not given) the inhibition was inconclusive: -18.9%.
With `COc1ccc(/C=C(\C#N)C(=O)OCC(=O)N(C)C2CCS(=O)(=O)C2)cc1` (stereo not given) the inhibition was inconclusive: 2.6%.
In the case of `CCOC(=O)C1CCN(C(=O)c2ccccc2N(C)S(C)(=O)=O)CC1`, the inhibition is reported as inconclusive: -14.2%.
For `CCCn1c2ccccc2c2nnc(SCc3[nH]c(=O)[nH]c3C(=O)CCCCC(=O)OCC)nc21`, the inhibition was inactive: 0.6%.
For `CCCCn1c(SCC(=O)Nc2cc(C)on2)nc2ccccc2c1=O`, the inhibition was inactive: -0.6%.
In the case of `Cc1nn(C)c2ncc(C(N)=O)c(Oc3ccc(Cl)cc3)c12`, the inhibition is reported as inconclusive: 14.5%.
For `COc1cc(/C=C2/SC(=S)N(CC(=O)Nc3nc4ccccc4s3)C2=O)cc(OC)c1OC`, the inhibition was active: 42.2%.
With `O=C(c1ccc2c(=O)n3c(nc2c1)CCC3)N1CCN(S(=O)(=O)c2ccccc2Br)CC1` the inhibition was inactive: -2.4%.
With `CN(C)c1nc(OCCOC(=O)COc2ccc(Cl)cc2Cl)nc(N(C)C)n1` the inhibition was inactive: -7.1%.
